Experimental data taken from a compilation of properties of binary mixtures (doi:10.1016/j.fluid.2015.01.011).
The densities may have been worked out from excess volumes.

Assay: xn = mol fraction of the nth substance listed
Conditions: 100 kPa

CC[n+]1ccn(C)c1.N#C[S-] + CCOS(=O)(=O)[O-].CC[n+]1ccn(C)c1
mass density [kg/m3]
Conditions | x1 = 0.199 | x1 = 0.32 | x1 = 0.429 | x1 = 0.67 | x1 = 0.899 | x1 = 0.9505 | x1 = 1
298.15 K | 1226.6 | 1214.5 | 1198.7 | – | 1133.5 | 1123.5 | 1115.6
303.15 K | 1223.3 | 1211.2 | 1195.5 | 1164.5 | 1130.4 | 1120.4 | 1112.5
308.15 K | – | 1208 | 1192.4 | 1161.4 | 1127.4 | 1117.4 | 1109.5
313.15 K | 1220.1 | 1208 | – | 1161.4 | 1127.4 | 1117.4 | 1109.5
318.15 K | 1216.9 | 1204.8 | 1189.2 | 1158.5 | 1124.4 | – | 1106.5
323.15 K | 1210.5 | 1198.5 | 1183 | 1152.4 | – | 1108.3 | 1100.6
328.15 K | 1207.3 | 1195.3 | – | 1149.4 | 1115.1 | 1105.3 | 1097.7
333.15 K | 1204.2 | – | 1176.7 | 1146.3 | 1112.1 | 1102.4 | 1094.8
338.15 K | 1201 | 1189.1 | 1173.6 | 1143.2 | – | 1099.4 | 1091.9
343.15 K | 1197.8 | – | – | 1140.1 | 1105.7 | 1096.5 | 1088.9
348.15 K | 1194.5 | 1182.9 | 1167.1 | 1137 | 1102.6 | – | 1085.9
353.15 K | 1191 | 1179.8 | 1163.8 | 1133.9 | 1099.7 | 1090.6 | 1082.7

CC[n+]1ccn(C)c1.N#C[S-] + CC[n+]1ccn(C)c1.N#C[N-]C#N
x1 = 1
Conditions | mass density [kg/m3]
298.15 K | 1115.6
303.15 K | 1112.5
308.15 K | 1109.5
313.15 K | 1106.5
323.15 K | 1100.6
333.15 K | 1094.8
348.15 K | 1085.9
353.15 K | 1082.7

CCOS(=O)(=O)[O-].CC[n+]1ccn(C)c1 + CC[n+]1ccn(C)c1.N#C[S-]
x2 = 0
Conditions | mass density [kg/m3]
298.15 K | 1238.4
303.15 K | 1235.1
308.15 K | 1231.7
313.15 K | 1231.7
318.15 K | 1228.4
323.15 K | 1221.9
328.15 K | 1218.7
333.15 K | 1215.5
338.15 K | 1212.2
343.15 K | 1208.9
348.15 K | 1205.4

CC[n+]1ccn(C)c1.N#C[N-]C#N + CC[n+]1ccn(C)c1.N#C[S-]
mass density [kg/m3]
Conditions | x2 = 0 | x2 = 0.2585 | x2 = 0.5112 | x2 = 0.7603
298.15 K | 1100.8 | – | 1108.5 | 1112.2
303.15 K | 1097.4 | 1101.4 | 1105.3 | 1109.1
308.15 K | 1094.2 | – | 1102.2 | 1106
313.15 K | 1090.9 | 1095 | 1099 | 1102.9
318.15 K | – | 1091.8 | 1096 | –
323.15 K | 1084.6 | 1088.7 | – | 1097
328.15 K | 1081.4 | – | 1089.8 | 1094
333.15 K | – | 1082.5 | 1086.8 | 1091
338.15 K | 1075.1 | – | 1083.7 | 1088.1
343.15 K | 1071.9 | 1076.3 | 1080.7 | 1085.1
348.15 K | 1068.7 | 1073.2 | – | 1082.1
353.15 K | 1065.3 | 1070.1 | 1074.5 | –

[N-]=C=S.[NH4+] + CC[n+]1ccn(C)c1.N#C[S-]
mass density [kg/m3]
Conditions | x1 = 0.039 | x1 = 0.099 | x1 = 0.1395
298.15 K | 1115.8 | 1116.8 | 1116
303.15 K | 1112.7 | 1113.8 | 1113
308.15 K | 1109.7 | 1110.8 | 1110
313.15 K | – | 1107.8 | 1107
318.15 K | – | 1104.9 | –
323.15 K | 1100.9 | 1102 | –
328.15 K | – | 1099.1 | 1098.4
333.15 K | 1095 | – | 1095.5
338.15 K | 1092 | 1093.4 | 1092.6
343.15 K | 1089 | 1090.5 | –
348.15 K | 1085.9 | – | 1087.1
353.15 K | 1082.7 | – | –

CC[n+]1ccn(C)c1.N#C[S-] + [N-]=C=S.[NH4+]
x2 = 0
Conditions | mass density [kg/m3]
298.15 K | 1115.6
303.15 K | 1112.5
308.15 K | 1109.5
313.15 K | 1106.5
318.15 K | 1103.6
328.15 K | 1097.7
333.15 K | 1094.8
338.15 K | 1091.9
343.15 K | 1088.9
